This is one part of the list. The list includes weakly bound sequences.
What follows are sequences tested against MaxL homodimer (UniProt P61244) (assay: universal protein-binding microarray (PBM)). Conditions: PBS-based mixture, 10 nM His-tagged protein dimer, 2% milk, 200 ng/uL BSA, 50 ng/uL salmon testes DNA, 0.02% TX-100; detection with Alexa 488 anti-His …; high values mean tight binding; most listed sequences are background and not binding sites; double strand, one strand shown.
Chain of UniProt P61244 (P61244 whole entry): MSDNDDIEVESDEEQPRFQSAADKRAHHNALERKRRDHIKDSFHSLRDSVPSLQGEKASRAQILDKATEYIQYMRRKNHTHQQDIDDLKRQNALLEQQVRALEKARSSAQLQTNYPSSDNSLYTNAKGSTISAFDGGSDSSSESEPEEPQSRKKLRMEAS

Sequence | binding signal (normalized occupancy)
CTATCTTA | 0.0742
GAGGAACA | 0.0707
CGAGGACC | 0.08
CATTCTCA | 0.0837
CATATACG | 0.0868
AAGACAGA | 0.0712
AGATCCTG | 0.0678
TGGGAAAA | 0.0766
CCCGACAG | 0.0712
ACTCCTAT | 0.0765
CCGACTCG | 0.0708
CCCTAAAA | 0.076
CGCAAGCA | 0.0691
CAATCGTG | 0.0825
ACCGACGC | 0.0744
GATAGCCC | 0.0734
CAGAAACG | 0.069
ATAGACGG | 0.0755
GAAGCTTA | 0.0739
CGGGTAAA | 0.0764
AAACTGCC | 0.0756
TCCTAGCA | 0.0789

Sequence | binding signal (normalized occupancy)
GAACTAAA | 0.071
CGAGACCG | 0.0657
AACGCGCG | 0.0803
CTCATCAG | 0.0756
AACAAACT | 0.0702
GTGAGTGA | 0.0775
CATTCAAG | 0.0736
AAACGATA | 0.0767
GCGGGCAA | 0.067
AAAAGTGG | 0.0712
CACCACTA | 0.0802
GGTAGACA | 0.0778
AGATAGCG | 0.0754
ACGAGTGA | 0.0751
CGGGGCAA | 0.0751
AACCCAGC | 0.0697
AGTCCCTC | 0.0709
TTAAGAAA | 0.0708
ATCAGCTC | 0.0718
AAAGCTTG | 0.0676
CTAGTTAC | 0.073
AATTCAGG | 0.0744

Sequence | binding signal (normalized occupancy)
GATCGATC | 0.0774
CAAGGGTC | 0.0697
AGTGAGGC | 0.0749
GAATATAC | 0.0866
AGCTTATG | 0.0729
CCACCACG | 0.0914
GGCCGACC | 0.0667
CATAAGAC | 0.086
GGGTACAA | 0.0783
GCTTTAGA | 0.0698
CGATCAGA | 0.0735
AGCTTACG | 0.0724
CCGGGAGC | 0.0624
CAGTCGGC | 0.0653
AGCGCCAC | 0.0747
GCGTTGAC | 0.0751
CGATTATC | 0.075
AAGGTCGA | 0.0707
AAAATCAC | 0.0808
CCATCTTA | 0.077
CACTGAAC | 0.0713
CACGATAA | 0.0805

Sequence | binding signal (normalized occupancy)
AACCGCTC | 0.0709
GAAAAGGC | 0.0727
TACACGCA | 0.0926
TCGTCTCA | 0.0755
CGAGGACG | 0.069
CGTCTGAG | 0.0733
GCATCACA | 0.0871
GCTTATGA | 0.0811
GGCGCGGA | 0.0714
GCGTGAAA | 0.086
TAGTATAA | 0.0804
CTATTGCC | 0.0756
AGCAAGTA | 0.0754
GTACAGGA | 0.0727
ATTGGGTC | 0.0736
AAACTAAT | 0.075
AGAATGTG | 0.0881
AGGATACA | 0.0757
ACGTAAAT | 0.0785
CGCCTACA | 0.08

From publication PMC4242493
